Molecules are shown by their SMILES. Some of the results follow. Most values come without repeats; read them as rough.

The text below walks through data of the supplement of paper PMC4604168 (melanoma cell lines).

Test systems include SkMel30; SkMel5; UACC257; UACC62; WM115; WM1716; WM1745; WM3526; WM3619; WM451Lu.
Common to all, as to test: cell count relative to DMSO control; melanoma cells; higher = more viable cells
Details in all cases: library dose: standard library concentration; 72 h
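Further: cells treated in 1,536-well plates, then fixed and DAPI-stained, with nuclei counted from automated high-throughput microscope images.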

Regarding `Cc1cc([N+](=O)[O-])ccc1NS(=O)(=O)c1cc(Cl)ccc1Cl` + COc1cc(N2CCC(N3CCN(C)CC3)CC2)ccc1Nc1ncc(Cl)c(Nc2ccccc2S(=O)(=O)C(C)C)n1 [NVP-TAE684] (first compound 5 µM, partner dose 0.4 µM), the cell count with SkMel30 was 81.3%; in the assay on SkMel5, 49.4%; with UACC257, 65.6%; in the assay on UACC62, 93.3%; with WM115, 69.1%; in the assay with WM1716, 5.71%. For the same molecule, the cell count was determined as 59.4% in the assay with WM1745, 65.3% in the assay with WM3526, 65.8% in the assay with WM3619 and 87.6% with WM451Lu.

Turning to `COC(=O)c1sccc1S(=O)(=O)Nc1ccc(Nc2ccccc2)cc1OC` + CCN(CC)CCCCNc1ncc2cc(-c3cc(OC)cc(OC)c3)c(NC(=O)NC(C)(C)C)nc2n1 [PD173074] (first compound 5 µM, partner dose 0.5 µM), the cell count in the assay on SkMel30 was 92.5%; with SkMel5, 90.8%; in the assay with UACC257, 100%; in the assay on UACC62, 84.6%; in the assay on WM115, 93.5%; in the assay on WM1716 it was 98.6%. For the same molecule, the cell count was 85.1% in the assay on WM1745, 87.1% in the assay on WM3526, 74.7% in the assay on WM3619 and 79% in the assay on WM451Lu.

In the case of `COc1ccc2c(c1)CCC1C2CCC2(C)C(NCCCCCCN3C(=O)C=CC3=O)CCC12` (stereo not given) + Cc1cc([N+](=O)[O-])ccc1NS(=O)(=O)c1cc(Cl)ccc1Cl [FH535] (first compound 2 µM, partner dose 5 µM), the cell count was 105% in the assay with SkMel30; 76.4% in the assay with SkMel5; 57.8% in the assay with UACC257; 60.5% in the assay with UACC62; 76.5% in the assay on WM115; 65.9% with WM1716. Besides, the cell count was 55.5% in the assay with WM1745, 81.1% in the assay on WM3526, 23.4% with WM3619 and 94.9% in the assay on WM451Lu.

For the molecule `N#Cc1c(O)c2c(-c3ccc(-c4ccccc4O)cc3)csc2[nH]c1=O` + O=C(O)C(=O)Nc1sc2c(c1C(=O)O)CCNC2 [TCS401] (first compound 10 µM, partner dose 8.33333 µM), the cell count in the assay on SkMel30 was found to be 136%; with SkMel5, 99.3%; with UACC257, 99.7%; with UACC62, 151%; in the assay with WM115, 133%; in the assay with WM1716 it was 101%. The cell count in the assay with WM1745 amounted to 113%; with WM3526 it was 112%; in the assay with WM3619, 80.8%; with WM451Lu, 109%.

Consider `N#Cc1c(O)c2c(-c3ccc(-c4ccccc4O)cc3)csc2[nH]c1=O` + O=C1NC(=O)/C(=C/c2ccc(-c3ccc(F)cc3O)o2)S1 [AS252424] (first compound 10 µM, partner dose 5 µM), for which the cell count in the assay with SkMel30 is 104%; with SkMel5, 83.2%; in the assay with UACC257, 97.8%; in the assay with UACC62, 98.7%; in the assay with WM115, 77.5%; in the assay with WM1716 it was 98.4%. The cell count with WM1745 was found to be 96.9%; in the assay on WM3526 it was 90.1%; in the assay on WM3619, 88%; in the assay on WM451Lu, 87.5%.

In the case of `N#Cc1c(O)c2c(-c3ccc(-c4ccccc4O)cc3)csc2[nH]c1=O` + COc1ccc2c(c1)CCC1C2CCC2(C)C(NCCCCCCN3C(=O)C=CC3=O)CCC12 [U73122] (first compound 10 µM, partner dose 2 µM), the cell count in the assay with SkMel30 was 98.5%; with SkMel5, 101%; with UACC257 it was 101%; in the assay on UACC62 it was 105%; with WM115, 87.2%; in the assay with WM1716, 88.9%. The cell count amounted to 49.7% in the assay with WM1745, 101% in the assay on WM3526, 46% with WM3619 and 96.6% in the assay with WM451Lu.

As for `COc1ccc2c(c1)CCC1C2CCC2(C)C(NCCCCCCN3C(=O)C=CC3=O)CCC12` (stereo not given) + COc1cc2ncnc(Nc3ccc(Oc4ccccc4)cc3)c2cc1OC [SrcI1] (first compound 2 µM, partner dose 10 µM), the cell count with SkMel30 turned out to be 75.6%; with SkMel5, 53.3%; in the assay on UACC257, 72.2%; in the assay on UACC62 it was 58.4%; in the assay with WM115, 72.4%; in the assay with WM1716, 60.3%. Besides, the cell count in the assay on WM1745 worked out at 56%; in the assay with WM3526, 42%; in the assay on WM3619 it was 51.2%; with WM451Lu, 71.4%.

Consider `COc1ccc(-c2ccc3c(N4CCOCC4)nc(N4C[C@@H](C)O[C@@H](C)C4)nc3n2)cc1CO` + COc1cc2ncnc(Nc3ccc(Oc4ccccc4)cc3)c2cc1OC [SrcI1] (first compound 0.1 µM, partner dose 10 µM), for which the cell count in the assay on SkMel30 was determined as 79.5%; in the assay with SkMel5 it was 56.6%; with UACC257 it was 74.7%; with UACC62, 71.1%; in the assay with WM115, 54.7%; with WM1716 it was 64.9%. Also, the cell count is 52% in the assay on WM1745, 46% in the assay with WM3526, 42% in the assay on WM3619 and 72.1% in the assay with WM451Lu.

Take `COc1ccc2c(c1)CCC1C2CCC2(C)C(NCCCCCCN3C(=O)C=CC3=O)CCC12` (stereo not given) + O=C1NC(=O)/C(=C/c2ccc(-c3ccc(F)cc3O)o2)S1 [AS252424] (first compound 2 µM, partner dose 5 µM): the cell count in the assay with SkMel30 was determined as 88.8%; in the assay with SkMel5, 68.3%; in the assay on UACC257, 91%; with UACC62, 54.5%; with WM115, 85.8%; in the assay with WM1716, 79.9%. The cell count in the assay on WM1745 amounted to 75.6%; in the assay on WM3526, 87.2%; with WM3619, 61.1%; in the assay with WM451Lu, 90.6%.

Turning to `O=S(=O)(c1ccccc1)N(CC(F)(F)F)c1ccc(C(O)(C(F)(F)F)C(F)(F)F)cc1` + O=c1cc(-c2cccc3c2Sc2ccccc2S3)oc(N2CCOCC2)c1 [KU55933] (first compound 7 µM, partner dose 5 µM), the cell count in the assay with SkMel30 was found to be 81.4%; in the assay with SkMel5, 93.4%; with UACC257, 93.7%; with UACC62, 94.6%; in the assay on WM115, 87.1%; in the assay with WM1716, 108%. For the same molecule, the cell count in the assay with WM1745 is 125%; in the assay on WM3526, 77.3%; in the assay with WM3619, 116%; with WM451Lu, 113%.

With `O=S(=O)(c1ccccc1)N(CC(F)(F)F)c1ccc(C(O)(C(F)(F)F)C(F)(F)F)cc1` + Oc1nc(-c2ccc(C(F)(F)F)cc2)nc2c1CSCC2 [XAV939] (first compound 7 µM, partner dose 10 µM), the cell count with SkMel30 was 75.4%; in the assay with SkMel5, 91.5%; in the assay on UACC257, 76.8%; with UACC62 it was 103%; in the assay with WM115, 96.3%; with WM1716, 82%. Further, the cell count in the assay with WM1745 was found to be 69.6%; in the assay with WM3526, 107%; with WM3619 it was 71.9%; with WM451Lu, 115%.

On to `N#Cc1c(O)c2c(-c3ccc(-c4ccccc4O)cc3)csc2[nH]c1=O` + O=c1cc(-c2cccc3c2Sc2ccccc2S3)oc(N2CCOCC2)c1 [KU55933] (first compound 10 µM, partner dose 5 µM), for which the cell count with SkMel30 is 106%; in the assay with SkMel5 it was 88.5%; in the assay on UACC257, 107%; with UACC62, 103%; in the assay with WM115, 135%; in the assay with WM1716, 92.5%. In addition, the cell count in the assay on WM1745 was 95%; in the assay on WM3526, 74.5%; with WM3619, 92.5%; in the assay with WM451Lu, 95.5%.
